About 4,500 (2.2%) of roughly 200,000 compounds were called active. The shares of active, inactive and inconclusive entries below differ from those in the screen. Calls follow the shape of the dose curve; as a rule, active = well fitted inhibition curve with a large enough effect; inconclusive = small, poorly fitted or top-dose-only effect, or effect the other way; inactive = flat fitted curve, though single readings scatter. A potency beside an inconclusive call is a rough fit, not a confirmed value.
Target: Cruzipain (Trypanosoma cruzi) (UniProt P25779)
Chain of UniProt P25779 (P25779 whole entry, looked up): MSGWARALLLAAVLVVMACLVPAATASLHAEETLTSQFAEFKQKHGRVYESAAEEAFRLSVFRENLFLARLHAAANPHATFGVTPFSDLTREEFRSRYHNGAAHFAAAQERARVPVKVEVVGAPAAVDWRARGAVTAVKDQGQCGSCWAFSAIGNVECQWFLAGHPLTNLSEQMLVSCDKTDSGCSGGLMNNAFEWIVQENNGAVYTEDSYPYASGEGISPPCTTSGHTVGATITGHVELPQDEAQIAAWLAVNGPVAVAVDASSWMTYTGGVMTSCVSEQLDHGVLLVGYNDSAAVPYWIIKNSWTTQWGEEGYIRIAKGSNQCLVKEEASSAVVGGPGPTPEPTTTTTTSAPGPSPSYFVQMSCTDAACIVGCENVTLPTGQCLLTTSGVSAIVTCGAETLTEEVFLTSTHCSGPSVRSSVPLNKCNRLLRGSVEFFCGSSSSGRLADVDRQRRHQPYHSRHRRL
Assay: qHTS Assay for Promiscuous and Specific Inhibitors of Cruzain (without detergent); also: nearly all actives have a fitted effect of over 40% in size;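 as to max response, negative = inhibition: plate controls were enzyme without inhibitor for no effect and buffer without enzyme for full effect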
Conditions: purified cruzain, Z-FR-AMC fluorescence, no detergent
Method in brief: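 Purified cruzain at 1.5 nM, pre-incubated 15 min with compound at room temperature in 100 mM sodium acetate pH 5.5, 5 mM DTT, 0.00005% Triton X-100. Reaction started with 2 uM Z-FR-AMC; AMC fluorescence increase over 60 s gives rate.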
Potency is read from the fitted curve at half-maximal effect; tags tell the direction and shape of the fitted curve.

| Compound | Potency | max response, negative = inhibition |
| --- | --- | --- |
| COc1ccc(N2C(=O)CC(Nc3ccc(C)cc3)C2=O)cc1 (stereo not given) | inconclusive: 39.8 µM [activator, single point] | – |
| CCOC(=O)Cc1ccc(NC(=O)N(Cc2ccc(CC)cc2)Cc2cn[nH]c2-c2ccc(OC)cc2)cc1 | – | inactive: 1.51% |
| COc1cccc(C(=O)Nc2nc(-c3ccc(Br)cc3)ns2)c1 | active: 25.1 µM | – |
| Nc1nn(-c2ccccc2)nc1C(=O)OCc1ccccc1 | inconclusive: 31.6 µM [activator, single point] | – |
| COc1ccc(CCNc2oc(COc3ccccc3F)nc2C#N)cc1 | inconclusive: 0.0631 µM [inhibitor, full curve] | – |
| CCCC[C@@H]1C[C@H]1C(NC(=O)c1cccs1)c1ccc(-c2ccccc2)cc1 (stereo not given in full) | – | inactive: -19.6% |
| CCc1ccc(C2CC(=O)N3CN(c4ccccc4)CSC3=C2C#N)cc1 (stereo not given) | inconclusive: 39.8 µM [inhibitor, single point] | – |
| c1cc(N2CCCC2)ccc1C(c1nnnn1C1CCCCC1)N1CCOCC1 (stereo not given) | inconclusive: 25.1 µM [activator, single point] | – |
| Cc1ccc(NC(=O)CCC(=O)N/N=C/c2cc([N+](=O)[O-])ccc2O)cc1 | inconclusive: 25.1 µM [inhibitor, single point] | – |
| COc1ccc2c(c1)[nH]c1c(=O)n(CCC3=CCCCC3)cnc12 | inconclusive: 39.8 µM [inhibitor, single point] | – |
| Cc1cc(=O)oc2cc(O)c(O)cc12 | inconclusive: 3.98 µM [inhibitor, single point] | – |
| COc1cccc(C2CC(C(F)(F)F)n3ncc(C(=O)NCC4CCCO4)c3N2)c1 (stereo not given) | inconclusive: 39.8 µM [activator, single point] | – |
| O=c1nc2s/c(=C\c3ccc(-c4ccccc4[N+](=O)[O-])o3)c(=O)n2nc1-c1ccccc1 | inconclusive: 25.1 µM [inhibitor, single point] | – |
| Cc1ccc(/C=C(\C#N)C(=O)Nc2cccc(Br)c2)o1 | active: 12.6 µM | – |
| C=Cc1c(C)c2cc3nc(cc4[nH]c(cc5nc(cc1[nH]2)C(C)=C5CCC(=O)O)c(CCC(=O)OC)c4C)[C@@]1(C)C3=CC=C(C(=O)OC)[C@H]1C(=O)OC (tested in a mixture with another compound) | inconclusive: 15.8 µM [activator, single point] | – |
| COc1ccc(C(=O)N2CCC3(CCN(Cc4ccccc4OC)CC3)CC2)cc1 | – | inactive: -4.5% |
| COc1ccc(NC(=O)Cc2coc3ccc4ccccc4c23)cc1S(=O)(=O)N1CCOCC1 | inconclusive: 31.6 µM [activator, single point] | – |
| CS(=O)c1ccccc1-c1nc(-c2cc(C(F)(F)F)cc(C(F)(F)F)c2)no1 (stereo not given) | inconclusive: 31.6 µM [activator, single point] | – |
| Cc1oc(-c2ccc(Cl)cc2)nc1CN1CCCC(C(=O)NCc2ccccc2)C1 (stereo not given) | – | inactive: 7.05% |
| CCC(C)NC(=O)CSc1nc2cc3c(cc2c(=O)n1CCCCCC(=O)NCc1ccc(OC)cc1)OCO3 (stereo not given) | – | inactive: -11.1% |

| Compound | Potency | max response, negative = inhibition |
| --- | --- | --- |
| Cc1ccc(S(=O)(=O)c2nc(S(=O)(=O)c3ccc(C)cc3)c(NCc3ccco3)s2)cc1 | active: 31.6 µM | – |
| Cc1cc(C)c(NC(=O)Cn2c(=O)n(Cc3ccccc3)c(=O)c3c(C)c(C(=O)N(C)C)sc32)c(C)c1 | inconclusive: 6.31 µM [activator, single point] | – |
| COc1cc2c(=O)c(S(=O)(=O)c3ccccc3)cn(CC(=O)Nc3ccccc3C)c2cc1OC | inconclusive: 10 µM [activator, partial curve] | – |
| Cc1cccc(C(=O)Nc2cccc(OCc3cc(=O)n4ccccc4n3)c2)c1 | – | inactive: 9.25% |
| COc1cc2c(cc1OC)C(COc1ccccc1OC)N(C(=O)c1ccccc1OC)CC2 (stereo not given) | inconclusive: 39.8 µM [activator, single point] | – |
| Cc1sc2ncn(CCn3cnc4sc(C)c(C)c4c3=O)c(=O)c2c1C | inconclusive: 39.8 µM [activator, single point] | – |
| CCOC(=O)Oc1ccc2c(=O)c(Oc3cccc(C)c3)coc2c1 | – | inactive: -11% |
| O=C(NCc1ccc(OC(F)(F)F)cc1)C12CN(Cc3ccccc3)CC1C(c1cccc([N+](=O)[O-])c1)=NO2 (stereo not given) | active: 20 µM | – |
| CC(C)CCNC(=O)c1cn(C)c2ccc(S(=O)(=O)N3CCOCC3)cc2c1=O | – | inactive: -4.65% |
| Cc1ccc(-c2csc(NC(=O)CCCc3cccs3)n2)cc1 | active: 7.94 µM | – |
| CC(=O)N1CCCc2cc(S(=O)(=O)N(Cc3ccccc3)C(C)C)ccc21 | inconclusive: 39.8 µM [activator, single point] | – |
| Cc1cccc(N(C(=O)c2ccc(CN3CCOCC3)o2)C(C(=O)NC(C)(C)C)c2ccc(F)cc2)c1 (stereo not given) | inconclusive: 25.1 µM [activator, partial curve] | – |
| O=C(N/N=C/C=C\c1ccccc1[N+](=O)[O-])c1cc(-c2ccc3ccccc3c2)n[nH]1 | active: 7.94 µM | – |
| CCn1cc(C(=O)NCc2ccc(F)cc2)c(=O)c2cc(S(=O)(=O)N(C)C)ccc21 | – | inactive: 4.58% |
| O=C(COc1ccccc1)Nc1ccc(S(=O)(=O)N2CCCC2)cc1 | inconclusive: 5.01 µM [inhibitor, single point] | – |
| Cc1cccc(S(=O)(=O)Nc2ccc(-c3nc4ccc(C)cc4s3)cc2)c1 | inconclusive: 39.8 µM [inhibitor, single point] | – |
| O=C(COc1cccc2ccccc12)N1c2ccccc2CCc2ccccc21 | inconclusive: 31.6 µM [inhibitor, single point] | – |
| CS(=O)(=O)Oc1ccccc1/C=C1/N=C(c2ccc(F)cc2)OC1=O | active: 15.8 µM | – |
| CC(C)(C)c1ccc(Cn2nnc3c(=O)[nH]c(C4CCCN(C(=O)Cc5cccs5)C4)nc32)cc1 (stereo not given) | inconclusive: 31.6 µM [activator, single point] | – |
| Cc1cccc(Oc2ccc(NC(=O)CCC(=O)OCC(=O)c3ccc(Br)cc3)cc2)c1C | inconclusive: 39.8 µM [inhibitor, single point] | – |

— PubChem BioAssay AID1476 (National Center for Advancing Translational Sciences (NCATS), 2009)
